# Experimental data: PubChem BioAssay AID588342 (National Center for Advancing Translational Sciences (NCATS), 2011)
# About 25,000 (6.9%) of roughly 360,000 compounds were called active. The shares of active, inactive and inconclusive entries below differ from those in the screen. The call rests on the fitted dose curve; in most records, active means well fitted inhibition curve with a large enough effect; inconclusive means small, poorly fitted or top-dose-only effect; inactive means flat fitted curve, though single readings scatter. A potency beside an inconclusive call is a rough fit, not a confirmed value.
# Biological target: Luciferin 4-monooxygenase (Photinus pyralis) (UniProt P08659)
# Assay: qHTS profiling assay for firefly luciferase inhibitor/activator using purifed enzyme and Km concentrations of substrates (counterscreen for miR-21 project); further: nearly all actives have a fitted effect of over 55% in size;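 on activity change, negative = inhibition: plate controls were vehicle for no effect and reference inhibitor for full effect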
# Conditions: purified FLuc, luminescence inhibition; activity change, negative = inhibition: at 57.5 µM (top of the series)
# In short: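 Biochemical qHTS of compounds, final roughly 60 µM downward over six points, against 10 nM purified firefly luciferase using Km concentrations of substrates (10 uM D-luciferin, 10 uM ATP) in Tris acetate pH 7.5 buffer; luminescence output.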
# Potency means the concentration at half of the fitted maximal effect; tags describe the fitted curve by direction and shape.
# Chain of UniProt P08659 (P08659 whole entry, looked up): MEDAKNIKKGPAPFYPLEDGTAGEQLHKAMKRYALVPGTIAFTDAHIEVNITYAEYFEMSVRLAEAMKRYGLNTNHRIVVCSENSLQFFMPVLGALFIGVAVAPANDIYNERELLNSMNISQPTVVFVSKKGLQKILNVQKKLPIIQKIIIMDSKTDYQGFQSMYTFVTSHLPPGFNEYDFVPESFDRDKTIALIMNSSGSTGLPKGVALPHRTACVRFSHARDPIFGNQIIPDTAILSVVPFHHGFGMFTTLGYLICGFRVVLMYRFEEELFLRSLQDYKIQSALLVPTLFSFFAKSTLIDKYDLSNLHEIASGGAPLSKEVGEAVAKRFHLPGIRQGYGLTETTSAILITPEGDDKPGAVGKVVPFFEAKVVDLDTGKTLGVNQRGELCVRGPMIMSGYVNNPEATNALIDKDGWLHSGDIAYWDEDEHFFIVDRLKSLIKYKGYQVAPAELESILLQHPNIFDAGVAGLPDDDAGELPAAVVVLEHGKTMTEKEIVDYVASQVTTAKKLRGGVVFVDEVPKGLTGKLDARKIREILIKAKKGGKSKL
Compound,Potency,"activity change, negative = inhibition"
CCOc1ccccc1-n1c(=S)sc2c(=O)n(-c3ccc(C)cc3)c(=S)[nH]c21,"inconclusive: 19 µM [inhibitor, partial curve]",–
CC(/C=N/NC(=O)CSc1n[nH]c(=O)[nH]c1=O)=C\c1ccccc1,active: 15.1 µM,–
COc1cccc(-c2ncnn2-c2sc3c(c2C#N)CCCCC3)c1OC,active: 0.953 µM,–
CCOC(=O)C1CCCN(C(=S)NC2CCCC2)C1 (configuration not stated),–,inactive: 0.94%
Cc1ccc2nc(SCC(=O)N/N=C/c3ccc(C(=O)O)cc3)cc(C)c2c1,"inconclusive: 26.9 µM [inhibitor, single point]",–
Cc1c(C(=O)NC(=S)N(Cc2ccccc2)c2ccccn2)cccc1[N+](=O)[O-],"inconclusive: 37.9 µM [inhibitor, partial curve, poor fit]",–
CC(=O)N1CCCN(Cc2cn(-c3ccc(C)cc3)nc2-c2cccc(C)c2)CC1,"inconclusive: 26.9 µM [inhibitor, single point]",–
Cc1ccc(NC(=O)CCc2c(C)nn(-c3ccc(N4CCOCC4)nn3)c2C)cc1C,"inconclusive: 30.1 µM [inhibitor, single point]",–
O=C(NCc1ccc(F)cc1)c1cc2ccccc2o1,–,inactive: -11.9%
COc1ccc(Cc2nc3ccc(C(=O)N(C)C(C)c4ccon4)cc3o2)cc1 (configuration not stated),"inconclusive: 21.3 µM [inhibitor, single point]",–
N#CCCN/N=C(/Cc1nc2ccccc2[nH]1)c1cccc(Cl)c1,"inconclusive: 21.3 µM [inhibitor, single point]",–
N#Cc1c(-c2ccco2)c2c([nH]c1=S)CCCC2,"inconclusive: 21.3 µM [inhibitor, partial curve, poor fit]",–
O=[N+]([O-])c1nn(-c2ccccc2)n(O)c1=NCc1ccc2c(c1)OCO2,"inconclusive: 37.9 µM [inhibitor, partial curve, poor fit]",–
COc1ccc(OC)c(NC(=O)C2=C(C)C(=O)OC23CCCCCC3)c1,–,inactive: -0.0697%
CCN(CC)c1ccc(C=Nc2ccc(C#N)cc2)c(O)c1,–,inactive: -11.6%
Cc1ccc(-c2cccc(OC(=O)c3ccccc3F)c2)cc1,active: 5.36 µM,–
CC(C)Cc1nnc(NC(=O)CCC(=O)NCCc2ccc(Cl)cc2)s1,–,inactive: 1.31%
c1csc(-c2nnc(-c3ccc(N4CCOCC4)cc3)o2)c1,active: 1.2 µM,–
COc1ccc(CC(=O)Oc2ccc(C)cc2Br)cc1OC,"inconclusive: 30.1 µM [inhibitor, single point]",–
O=C(OCC(=O)c1ccc(Cl)s1)c1ccc2ccccc2n1,"inconclusive: 16.9 µM [inhibitor, partial curve]",–
CCn1cc(C(=O)NC(=S)Nc2ccccc2Br)cn1,"inconclusive: 19 µM [inhibitor, partial curve]",–
CCOc1ccc(-c2nnc(NC(=O)CCCOc3cccc(C)c3)o2)cc1,"inconclusive: 30.1 µM [inhibitor, single point]",–
CCOc1ccc(S(=O)(=O)N2CCN(Cc3ccc4c(c3)OCO4)CC2)cc1C,–,inactive: 0.0646%
Cc1cc(Oc2ccccc2)nc2ccc(O)cc12,–,inactive: -18.1%

Compound,Potency,"activity change, negative = inhibition"
Cc1ccccc1Nc1nc(-c2sc(NC(=O)c3cccc(Cl)c3)nc2C)cs1,"inconclusive: 9.53 µM [inhibitor, partial curve]",–
COc1ccc(-c2ccc(SCC(=O)Nc3cccc(C(C)=O)c3)nn2)cc1OC,active: 6.01 µM,–
CC1CN(c2ncc(/C=N/NC(=O)c3ccccc3O)s2)CC(C)O1 (configuration not stated),"inconclusive: 21.3 µM [inhibitor, partial curve, poor fit]",–
CSc1ccc(/C=C/C(=O)OCC(=O)N(C)CCC#N)cc1,–,inactive: -17.4%
COc1cccc(/C=C/C(=O)OCC(=O)N(C)CC(=O)Nc2ccccc2Cl)c1OC,"inconclusive: 23.9 µM [inhibitor, partial curve, poor fit]",–
Cc1nc2nc(CSc3ccc(Cl)cc3)cc(=O)n2[nH]1,"inconclusive: 42.6 µM [inhibitor, partial curve, poor fit]",–
CCN(CC)c1nc(-c2cccc(OC)c2O)nc2ccccc12,"inconclusive: 37.9 µM [inhibitor, partial curve, poor fit]",–
Cc1cc(C)c(C)c(S(=O)(=O)Nc2ccc3cn[nH]c3c2)c1C,–,inactive: 2.72%
Cc1csc2nc(COC(=O)c3cccc(NC(=O)COc4ccc(Cl)cc4)c3)cc(=O)n12,"inconclusive: 6.01 µM [inhibitor, full curve]",–
Nc1ccc(Oc2cc(N)cc(Oc3ccccc3)c2)cc1,active: 6.01 µM,–
O=[N+]([O-])c1cccc(N/N=C/c2cccc3ccccc23)c1,active: 19 µM,–
N#C/C(=C\C=C\c1ccccc1)C(=O)Nc1ccccc1,–,inactive: -10.2%
O/N=C/c1ccc2ccccc2c1,–,inactive: -19.7%
COc1ccc(-c2nc(C#N)c(NCc3ccccc3Cl)o2)cc1,"inconclusive: 26.9 µM [inhibitor, single point]",–
CC(=O)Nc1ccc(C(=O)NCC(=O)OCc2ccccc2F)cc1,"inconclusive: 37.9 µM [inhibitor, partial curve, poor fit]",–
C1=C(c2ccc(-c3ccccc3)cc2)Nc2ncnn2C1c1ccco1 (configuration not stated),active: 21.3 µM,–
COC(=O)CSc1snnc1-c1ccc(Cl)c(Cl)c1,"inconclusive: 21.3 µM [inhibitor, single point]",–
Nc1cc2nc3ccccc3oc-2cc1=O,"inconclusive: 21.3 µM [inhibitor, single point]",–
Cc1ccnc(NC(=O)CCc2c[nH]c3ccccc23)c1,"inconclusive: 30.1 µM [inhibitor, single point]",–
c1ccc(COc2ccc(-c3sc(Nc4ccccc4)n[n+]3-c3ccccc3)cc2)cc1,"inconclusive: 30.1 µM [inhibitor, single point]",–
CCCc1cc(=O)[nH]c2nnc(SC(C)CC)n12 (configuration not stated),"inconclusive: 21.3 µM [inhibitor, single point]",–
O=C(Cn1[nH]c(=O)c2ccccc2c1=O)OCC(=O)c1ccccc1,"inconclusive: 23.9 µM [inhibitor, partial curve, poor fit]",–
O=C(OCc1cc(Cl)ccc1OC(F)F)c1cc(S(=O)(=O)O)ccc1O,–,inactive: -1.38%
O=[N+]([O-])c1ccccc1NCc1c(O)ccc2ccccc12,"inconclusive: 33.8 µM [inhibitor, partial curve, poor fit]",–

Compound,Potency,"activity change, negative = inhibition"
O=C(NC1=NCCS1)c1ccc(Cl)cc1,active: 10.7 µM,–
CCN(CC)c1ccc(NC(=O)CCS(=O)(=O)c2cc3c(cc2Cl)NC(=O)CO3)c(C)c1,"inconclusive: 9.53 µM [inhibitor, partial curve, poor fit]",–
Cc1cccc(NC(=O)c2ccc3snnc3c2)c1,"inconclusive: 30.1 µM [inhibitor, single point]",–
Cc1ccc2nc(-c3ccc(Cl)c(NC(=O)COc4cccc(C)c4C)c3)oc2c1,active: 4.78 µM,–
CCC1(c2ccccc2)NC(=O)N(CC(=O)Nc2ccc(S(N)(=O)=O)cc2)C1=O (configuration not stated),–,inactive: 0.498%
O=C(NCc1cccnc1)c1ccc(COc2ccc(Cl)cc2)cc1,"inconclusive: 30.1 µM [inhibitor, partial curve, poor fit]",–
O=C(N/N=C/c1ccoc1)c1ccc(Br)cc1,active: 15.1 µM,–
O=C(Nc1cccc(Cl)c1)C1CCN(C(=O)c2cccs2)CC1,–,inactive: -0.584%
N#C/C(=C\c1cn(CCOc2ccccc2)c2ccccc12)C(=O)NCC1CCCO1 (configuration not stated),"inconclusive: 30.1 µM [inhibitor, single point]",–
Cc1ccc(NC(=O)c2nc[nH]c2C(=O)N(C)Cc2ccccc2)cc1,"inconclusive: 8.49 µM [inhibitor, single point]",–
CCOC(=O)c1sc(NC(=O)c2ccc(OC)cc2)nc1C,"inconclusive: 2.39 µM [inhibitor, partial curve, poor fit]",–
O=C(N/N=C/c1cccc2ccccc12)c1ccccc1Cl,active: 7.57 µM,–
CCOc1ccc(C(=S)NC2CCCCC2)cc1OCC,"inconclusive: 26.9 µM [inhibitor, single point]",–
CN(Cc1ccccc1)C(=O)COC(=O)c1ccc(Cl)c(N)c1,"inconclusive: 19 µM [inhibitor, single point]",–
CN(C)c1ccc(-c2n(C)c3ccccc3[n+]2C)cc1,"inconclusive: 21.3 µM [inhibitor, single point]",–
CCc1ccc(C(=O)NNC(=O)CCC2CCCCC2)cc1,–,inactive: -3.07%
O=C(NCc1ccc2c(c1)OCO2)c1ccc(COc2cc(Cl)ccc2Cl)o1,"inconclusive: 19 µM [inhibitor, partial curve, poor fit]",–
CCOC(=O)c1c(C)[nH]c(C(=O)NNC(=O)c2ccc(Br)cc2)c1C,"inconclusive: 30.1 µM [inhibitor, single point]",–
CCOC(=O)c1c(NC(=S)Nc2ccc(OCC)cc2)sc2c1CCN(C)C2,"inconclusive: 37.9 µM [inhibitor, partial curve, poor fit]",–
CCn1c(=O)c(C(=O)NNC(=O)c2ccccc2F)c(O)c2ccccc21,–,inactive: -2.45%
COc1cc(C(=O)Nc2cccc(NC(=O)c3ccccc3)c2)cc(OC)c1OC,active: 15.1 µM,–
Cc1c(Cl)cccc1NC(=O)COCc1cc(-c2ccc3c(c2)OCO3)on1,"inconclusive: 21.3 µM [inhibitor, partial curve, poor fit]",–
COc1cccc(CNC(=O)CCc2c(C)nc3c(c(C)nn3-c3ccc(C)c(C)c3)c2C)c1,–,inactive: -5.22%
Cc1cccc(C(=O)Nc2cccc(Br)c2)c1[N+](=O)[O-],"inconclusive: 37.9 µM [inhibitor, partial curve, poor fit]",–
